# Assay results as given in PMC4336329 (PLoS ONE, 2015).
# In all, about 310,000 compounds went through this assay and about 2,200 (0.71%) showed an effect of 50% or more. Effects have a minus sign here. Some of the results follow.
# Target: human ether-à-go-go-related gene (hERG) potassium channel (human, UniProt Q12809)
# Assay: primary screen, population patch clamp on CHO cells stably expressing hERG
# human ether-à-go-go-related gene (hERG) potassium channel, sequence (Q12809 whole entry, looked up): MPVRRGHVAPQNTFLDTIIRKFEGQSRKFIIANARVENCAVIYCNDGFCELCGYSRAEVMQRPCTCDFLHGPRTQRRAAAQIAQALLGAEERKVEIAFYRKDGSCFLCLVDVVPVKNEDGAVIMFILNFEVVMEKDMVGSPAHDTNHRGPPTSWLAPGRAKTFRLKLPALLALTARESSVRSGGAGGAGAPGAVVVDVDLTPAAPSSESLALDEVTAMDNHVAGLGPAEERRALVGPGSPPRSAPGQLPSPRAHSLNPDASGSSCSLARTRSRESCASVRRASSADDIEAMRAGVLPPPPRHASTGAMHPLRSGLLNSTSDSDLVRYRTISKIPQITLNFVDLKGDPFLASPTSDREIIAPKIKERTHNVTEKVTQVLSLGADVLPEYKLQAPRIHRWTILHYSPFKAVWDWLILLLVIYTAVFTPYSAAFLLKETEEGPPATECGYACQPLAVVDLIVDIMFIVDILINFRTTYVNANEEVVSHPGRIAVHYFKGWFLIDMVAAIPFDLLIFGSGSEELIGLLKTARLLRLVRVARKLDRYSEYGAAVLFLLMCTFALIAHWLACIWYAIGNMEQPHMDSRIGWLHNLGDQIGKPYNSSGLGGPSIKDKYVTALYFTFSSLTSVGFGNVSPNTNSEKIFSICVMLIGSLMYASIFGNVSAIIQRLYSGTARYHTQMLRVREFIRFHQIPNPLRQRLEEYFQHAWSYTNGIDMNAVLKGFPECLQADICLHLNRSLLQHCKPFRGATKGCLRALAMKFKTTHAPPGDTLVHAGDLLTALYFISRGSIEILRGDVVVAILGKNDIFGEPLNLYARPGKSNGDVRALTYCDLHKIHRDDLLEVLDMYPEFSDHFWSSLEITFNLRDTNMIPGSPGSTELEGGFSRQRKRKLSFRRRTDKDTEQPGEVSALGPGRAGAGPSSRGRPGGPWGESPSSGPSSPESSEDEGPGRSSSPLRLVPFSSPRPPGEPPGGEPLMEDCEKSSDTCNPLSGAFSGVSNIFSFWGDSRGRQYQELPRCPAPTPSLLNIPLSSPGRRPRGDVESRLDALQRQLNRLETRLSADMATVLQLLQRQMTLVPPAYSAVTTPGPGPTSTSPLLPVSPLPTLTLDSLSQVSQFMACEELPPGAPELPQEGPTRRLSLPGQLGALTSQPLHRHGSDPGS
row,Compound,"hERG current change (%, negative = inhibition) at 1uM [%]"
1,Cc1c(NC(=O)CSc2nnc(COc3ccccc3)n2-c2ccccc2)c(=O)n(-c2ccccc2)n1C,13.7
2,O=C(Nc1ccc(-c2cnco2)cc1)c1ccc(F)cc1F,10.4
3,Cc1ccc(C(=O)N(c2c(C)n(C)n(-c3ccccc3)c2=O)C(C)C)cc1,7.19
4,CC(Cc1ccccc1)NC=O (centres unmarked),14.3
5,CC(Cc1ccccc1Sc1ccccc1O)N(C)C.Cl (centres unmarked),3.67
6,Cc1ccc(C(C)C)c(OCC(=O)NNC(=O)Cn2[nH]c(=O)c3ccccc3c2=O)c1,3.51
7,CCOC(=O)C1(CCOc2ccccc2)CCN(CC2CC2)CC1,-22.2
8,O=C(COC(=O)c1ccc(O)cc1)Nc1cc(C(F)(F)F)ccc1Cl,6.99
9,Cc1ccc(CSc2nc3ccccc3c(=O)n2CCCC(=O)NCc2ccco2)cc1,1.62
10,O=C(Nc1ccc(Cl)c(S(=O)(=O)N2CCOCC2)c1)C1CCC1,5.13
11,Nc1nc(NCCCN2CCOCC2)nc(Nc2ccccc2)c1[N+](=O)[O-],5.04
12,COc1ccc(N2CCN(C(=O)c3ccc(CS(=O)Cc4ccc(Cl)cc4)o3)CC2)cc1 (centres unmarked),-4.74
13,CC1CN=C(Nc2ccccc2)S1 (centres unmarked),18.3
14,COc1cc(C(=O)Nc2ccc3c(c2)Cc2ccccc2-3)cc(OC)c1OC,5.91
15,O=C(c1cc(-c2ccc(Cl)c(Cl)c2)on1)N1CCN(c2ccccc2)CC1,6.15
16,CCSc1nc2sc3c(c2c(=O)[nH]1)CCCC3,12.9
17,CCN(CC)CCOc1c(C)cccc1Cl,-11.9
18,O=C(c1ccc2c(c1)OCO2)N1CCc2ccccc2C1,5.98
19,O=C(CCC1CCCN(C(=O)Cn2cnnn2)C1)NCc1ccccc1F (centres unmarked),12.5
20,O=C(COC(=O)CCC1CCCC1)Nc1ccc(Cl)cc1F,-2.67
21,O=C(O)c1ccccc1N/N=C/c1c(Sc2nnnn2-c2ccccc2)nc2ccccn2c1=O,-14.9
22,CCn1c(/N=C/c2ccc(OC)cc2O)nc2ccccc21,14

row,Compound,"hERG current change (%, negative = inhibition) at 1uM [%]"
1,COc1ccccc1CNC(=O)C1CC2Cn3c(nc4ccccc43)C2N1C (centres unmarked),4.97
2,CC(C)(C)NS(=O)(=O)c1ccc(NS(=O)(=O)Cc2ccccc2)cc1,10
3,Cc1ccc(NC(=O)CSCc2c(C)noc2C)cc1C,2.62
4,Cc1ccc(C(=O)Nc2ccon2)cc1S(=O)(=O)N1CCCCCC1,-7.14
5,Cc1ccc(C(=O)Nc2c(-c3cccs3)c(=O)c3ccccc3n2C)cc1,-1.2
6,O=C(NCC1CCCCC1)c1ccc(=O)[nH]c1,28
7,CSCc1c(C(=O)OCC(=O)NC2CCCCC2)oc2ccccc12,7.46
8,Cn1cnnc1SCC(=O)Nc1ccc(Cl)cc1,4.92
9,CCSc1nc(O)cc(=O)[nH]1,16.4
10,CC1CCCN(C(=O)C(=O)c2cn(CC(=O)N3CCCCCC3)c3ccccc23)C1 (centres unmarked),9.82
11,CN(CC(=O)Nc1c(Cl)cccc1Cl)C(=O)CC1Sc2ccccc2NC1=O (centres unmarked),1.8
12,COc1cc2c(cc1OC)C(c1cc(Br)ccc1O)N(C(C)=O)CC2 (centres unmarked),9.58
13,O=C(NC1CCSC1=O)c1ccccc1 (centres unmarked),12.3
14,Cc1cc(C)c(NC(=O)Nc2ccccc2C)c(Cl)c1,16.8
15,CCn1c(SCC(=O)C(C)(C)C)nnc1-c1cccnc1,12.3
16,CCCn1c(N)c(C(=O)CN(C)CC(=O)Nc2cccc(F)c2)c(=O)[nH]c1=O,-73.1
17,CCOC(=O)N1CCN(C(=O)CCn2c(=S)[nH]c3ccsc3c2=O)CC1,15.4
18,CNC(=O)c1cc2cc(Br)ccc2s1,5.98
19,Cc1ccc(-c2nc(CN(Cc3c(C)nn(C)c3C)C(C)C)c(C)o2)o1,7.18
20,CCN1CCN(c2nc3c(c(=O)[nH]c(=O)n3C)n2CCSc2nc3ccccc3s2)CC1,5.71
21,COc1cccc(/C=N/NC(=O)c2[nH]nc3c2CCc2ccccc2-3)c1,18.4
22,CC(=O)c1ccc(NC(=O)CCNS(=O)(=O)c2cc(Br)cnc2N)cc1,6.33

row,Compound,"hERG current change (%, negative = inhibition) at 1uM [%]"
1,COCCNC(=O)c1c[nH]c2ccc(S(=O)(=O)N3CCOCC3)cc2c1=O,25.9
2,CCCc1[nH]nc2c1C(c1cn[nH]c1-c1ccc(F)cc1)C(C#N)=C(N)O2 (centres unmarked),4.11
3,Cc1ccnc(NS(=O)(=O)c2ccc(NC(=O)c3snnc3C)cc2)n1,15
4,O=C(NCc1ccccc1)c1ccc(Br)cc1,10.6
5,COc1cc(NC(=O)c2cc(OC)c(OC)c(OC)c2)cc(-n2cnnn2)c1,16.3
6,CC(=NCCc1c(C)[nH]c2ccc(OCc3ccccc3)cc12)C1=C(O)CC(c2ccccc2)CC1=O (centres unmarked),22.4
7,Cn1c(CCNC(=O)OC(C)(C)C)n[nH]c1=S,6.43
8,O=C(NCCN1CCOCC1)c1cccc(S(=O)(=O)N(Cc2ccccc2)c2ccccc2)c1,10.3
9,CC1(C)Cc2cccc(OCC(=O)OCC(=O)c3ccccc3)c2O1,-2.67
10,O=C(Nc1ccc(NC(=O)C2CC2)nc1)c1ccco1,11.3
11,O=C(COc1ccc2ccccc2c1)N/N=C/c1ccccn1,-6.2
12,COCCCNC(=O)Cc1c(C)c2cc3c(cc2oc1=O)OC(C)(C)CC3,12.6
13,O=C(CN1CCN(Cc2ccc(F)cc2)CC1)NCCc1ccccc1,-0.477
14,O=C(NC(NC1CCS(=O)(=O)C1)C(=O)c1ccccc1)c1ccc(Cl)cc1 (centres unmarked),-4.26
15,COc1ccc(NC(=O)Cc2c(F)c(F)c(F)c(F)c2F)cc1OC,16.8
16,O=C(c1ccccc1Cl)N1N=C(c2cccs2)CC1c1cccc(O)c1 (centres unmarked),12.8
17,CC1CCc2c(sc3nc(SCC(=O)O)n(-c4ccccc4)c(=O)c23)C1 (centres unmarked),11.4
18,COC(=O)c1c(N2C(=O)CC(Sc3ccccc3C(=O)O)C2=O)sc2c1CCCC2 (centres unmarked),16.3
19,O=C(O)C1CC(c2ccc(F)cc2)=NO1 (centres unmarked),2.07
20,O=C(CCCC(=O)OCC(=O)c1ccc(Cl)cc1)NC1CCCCC1,11.4
21,Cc1cc(C(=O)COc2ccccc2C(N)=O)c(C)n1C1CC1,9.35
22,COc1ccc(CC(=O)Nc2c3c(nn2-c2cccc(Cl)c2)CS(=O)C3)cc1 (centres unmarked),-9.2

row,Compound,"hERG current change (%, negative = inhibition) at 1uM [%]"
1,O=C(NNC(=O)c1cc2cc3ccccc3nc2s1)c1cccc(C(F)(F)F)c1,5.76
2,CN1C(=O)[C@H]2[C@@H](/C=C/c3ccccc3)N3C(=O)CN(CC4CC4)C(=O)[C@@]3(C)[C@H]2C1=O,13
3,Cn1ccnc1SCC(=O)Nc1nc2c(F)c(F)c(F)cc2s1,4.09
4,CCCCNC(=S)NNC(=O)c1ccc2c(c1)OCO2,7.12
5,NC(=O)c1ccccc1NC(=O)C(c1ccccc1)c1ccccc1,13.5
6,CNc1ccc([N+](=O)[O-])cc1C(=O)O,0.228
7,COC(=O)c1sccc1NC(=O)C1C2C=CC(O2)C1C(=O)O (centres unmarked),8.07
8,CCCCC(C(=O)NC(C)(C)C)N(Cc1ccccc1)C(=O)c1snc(C(N)=O)c1N (centres unmarked),13.7
9,CCOC(=O)N1CCN(CC(=O)Nc2c(C(=O)OC)[nH]c3ccccc23)CC1,7.01
10,Fc1ccc(-c2ccc(-c3nn4c(-c5ccco5)nnc4s3)o2)cc1,-0.511
11,Cc1cccc(C(=O)NNC2=C(C(=O)C(F)(F)F)CCC2)c1O,20.2
12,COc1ccc(NC(=O)c2cc(Br)ccc2Cl)c(OC)c1,3.37
13,CCOC(=O)c1cc(-c2ccccc2)sc1NC(=O)CSc1nnc(N)s1,2.01
14,C=CCC(O)(CC=C)CNC(=O)C1CCC(=O)N(CCCc2ccccc2)C1 (centres unmarked),12.7
15,COC(=O)c1ccc(Cn2nc(-c3ccc(C)cc3)ccc2=O)cc1,21.1
16,COc1cccc(N2CCN(CC(=O)NCc3ccccc3)CC2)c1,8.47
17,CON/C=C(\C=Nc1ccc(Cl)cc1Cl)c1ncc(C(F)(F)F)cc1Cl,10.7
18,COc1cccc(NC(=O)C2C3C=CC(O3)C2C(=O)O)c1 (centres unmarked),11.7
19,FC(F)(F)c1cnc(-c2cnc3c(-c4ccc(Cl)cc4)cnn3c2)c(Cl)c1,-5.29
20,CCOC(=O)c1cnc(-c2ccccc2O)nc1Cl,-2.31
21,CC1(NC(=O)NCc2ccco2)CCS(=O)(=O)C1 (centres unmarked),8.54
22,O=C(CNc1ccc(Oc2ccccc2)cc1)N1CCOCC1.O=C(O)C(=O)O,6.75

row,Compound,"hERG current change (%, negative = inhibition) at 1uM [%]"
1,O=C(O)C1CCN(C(=O)c2ccccc2N2C(=O)[C@@H]3Cc4c([nH]c5ccccc45)C(c4cccc(Cl)c4)N3C2=O)CC1 (some centres unmarked),10.6
2,CC(=O)c1cnn(-c2ccc(Cl)cc2)c1C,9.93
3,C#CCOCCOCCOCCNc1nc(N2CCN(C(=O)[C@H](CCCC[NH3+])n3cc(CCC(=O)O)nn3)CC2)nc(N2CCN(C(=O)[C@H](CCCC[NH3+])n3cc(CC(C)O)nn3)CC2)n1.[Cl-] (some centres unmarked),14.8
4,COc1ccc(Nc2nc(C)cc(=O)[nH]2)cc1,14
5,O=C(COC(=O)c1ccccn1)Nc1ccc(S(=O)(=O)N2CCOCC2)cc1,4.64
6,CS(=O)(=O)N(CCc1ccccc1)CC(=O)NCC1CCCO1 (centres unmarked),14.9
7,CC(NC(=O)C1CCC(=O)N1Cc1ccc(F)cc1)c1ccc2c(c1)OCCO2 (centres unmarked),9.76
8,O=C(NCc1ccccn1)Nc1cc(Cl)cc(Cl)c1,4.54
9,CS(=O)(=O)c1ccccc1C(=O)Nc1ccccc1Cc1ccccc1,12.9
10,CCOCCCNC(=O)C(NC(=O)c1ccc(=O)[nH]c1)c1ccc(C)cc1 (centres unmarked),5.19
11,CC(C)C(NC(=O)CN(c1cccc(F)c1)S(C)(=O)=O)C(C)C,8.33
12,O=C(NCc1ccccn1)C(=O)NCC1OCCN1C(=O)c1ccc(Cl)cc1 (centres unmarked),4.76
13,CN(CCc1ccccn1)C(=O)Nc1ccc(C(C)(C)C)cc1,7.02
14,OCC1(Cc2cccc(F)c2)CCN(Cc2cccc3nccnc23)CC1,-19.8
15,COCCN1CCN(c2cc(-c3ccccc3)nc3cc(-c4cccc(F)c4)nn23)CC1,9.67
16,O=C(N/N=C/c1cccc(O)c1)N/N=C/c1cccc(O)c1,6.49
17,CCc1ccc2[nH]c(=O)c(CN(Cc3ccccc3)Cc3nnnn3Cc3ccco3)cc2c1,16.3
18,CCN(C(=O)COC(=O)c1cc(Cl)ccc1OC)c1c(N)n(Cc2ccccc2)c(=O)[nH]c1=O,10.7
19,CCCCCC(=O)Nc1ccccc1N1CCN(c2ccccc2)CC1,6.64
20,COc1ccc(NC(=O)O/N=C/c2c(C)nn(C(C)(C)C)c2C)cc1,-5.86
21,O=C(Cc1nc2ccccc2[nH]1)c1cccc([N+](=O)[O-])c1,7.63
22,COc1cc(-c2noc(C)c2/C=C/c2ccc(C(=O)O)cc2)cc(OC)c1OC,5.04
